# Data: PMC4336329 (PLoS ONE, 2015)
# About 2,200 (0.71%) of roughly 310,000 compounds showed an effect of 50% or more. Effects have a minus sign here. The list shows a part of the results.
# Biological target: human ether-à-go-go-related gene (hERG) potassium channel (human, UniProt Q12809)
# Test: primary screen, population patch clamp on CHO cells stably expressing hERG
# human ether-à-go-go-related gene (hERG) potassium channel, sequence (Q12809 whole entry, looked up): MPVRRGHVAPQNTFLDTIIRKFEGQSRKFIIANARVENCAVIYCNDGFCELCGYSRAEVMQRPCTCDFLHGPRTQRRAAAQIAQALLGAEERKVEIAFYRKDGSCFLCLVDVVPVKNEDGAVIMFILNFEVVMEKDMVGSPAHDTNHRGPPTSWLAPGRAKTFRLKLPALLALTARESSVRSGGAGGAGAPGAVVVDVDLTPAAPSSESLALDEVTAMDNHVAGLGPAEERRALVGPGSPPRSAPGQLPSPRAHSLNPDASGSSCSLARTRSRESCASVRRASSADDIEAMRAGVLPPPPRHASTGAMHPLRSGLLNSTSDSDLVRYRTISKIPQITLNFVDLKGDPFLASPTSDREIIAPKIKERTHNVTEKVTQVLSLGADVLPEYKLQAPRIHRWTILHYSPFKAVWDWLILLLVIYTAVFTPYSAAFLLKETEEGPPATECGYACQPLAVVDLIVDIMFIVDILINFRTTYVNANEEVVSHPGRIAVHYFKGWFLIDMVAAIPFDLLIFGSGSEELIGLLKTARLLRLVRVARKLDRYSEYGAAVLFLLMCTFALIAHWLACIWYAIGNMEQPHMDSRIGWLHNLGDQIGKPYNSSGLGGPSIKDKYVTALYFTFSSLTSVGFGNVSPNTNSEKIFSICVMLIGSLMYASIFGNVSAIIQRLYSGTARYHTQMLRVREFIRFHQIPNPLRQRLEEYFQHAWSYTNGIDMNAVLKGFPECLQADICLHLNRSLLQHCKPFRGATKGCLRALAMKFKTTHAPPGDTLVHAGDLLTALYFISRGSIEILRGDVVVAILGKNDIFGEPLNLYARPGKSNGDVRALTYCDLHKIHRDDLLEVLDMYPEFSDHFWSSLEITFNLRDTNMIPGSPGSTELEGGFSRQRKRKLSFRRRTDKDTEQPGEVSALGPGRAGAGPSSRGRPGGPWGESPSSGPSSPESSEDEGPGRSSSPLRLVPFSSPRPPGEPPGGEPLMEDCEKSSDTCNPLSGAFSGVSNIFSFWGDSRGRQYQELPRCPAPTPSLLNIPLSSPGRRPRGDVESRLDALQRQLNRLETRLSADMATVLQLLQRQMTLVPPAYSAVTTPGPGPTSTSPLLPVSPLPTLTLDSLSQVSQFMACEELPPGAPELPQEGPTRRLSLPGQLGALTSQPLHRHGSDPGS
row,Compound,"hERG current change (%, negative = inhibition) at 1uM [%]"
1,O=C(NCc1cccc(C(F)(F)F)c1)c1cccc(S(=O)(=O)NCc2ccccc2)c1,9.37
2,O=C(Cn1cccn1)N1CCCC(N2CCN(c3ccccc3F)CC2)C1 (stereo not drawn),10.2
3,COc1ccc(C(=O)Nc2ccc3[nH]ncc3c2)cc1OC,9.61
4,CCCCC[C@H](O)/C=C/[C@@H]1[C@@H](C/C=C\CCCC(=O)OC)[C@@H](O)C[C@H]1O,13.7
5,CC(=O)c1ccc(NC(=O)CSc2nnc3ccc(-c4ccccn4)nn23)cc1,1.01
6,CC1=C(C)CS(=O)N(S(=O)(=O)c2ccccc2)C1 (stereo not drawn),-0.258
7,CC(C)OC(=O)CN1CCN(S(=O)(=O)c2cc(Cl)ccc2Cl)CC1,-1.48
8,Cc1cc2c(Nc3ccccc3)ncnc2s1.Cl,-1.22
9,Cc1ccc(C(=O)NCC(=O)Nc2ccc(C)c(S(=O)(=O)Nc3ccc(Cl)cc3)c2)s1,13.8
10,Cc1cccc(N2C(=O)c3ccc(C(=O)Nc4ccccn4)cc3C2=O)c1,14.5
11,CSc1cccc(NC(=O)c2nnn(Cc3ccccc3)c2N)c1,16
12,O=C1C=C(c2cccc(O)c2)C[C@@H](c2ccc(F)cc2)C1,13.3
13,O=C(O)/C=C\C(=O)Nc1ccc(OC(F)F)cc1,12.9
14,CCOC(=O)N1CCN(S(=O)(=O)c2ccc(C(=O)NNc3nc4cc(C)cc(C)c4s3)cc2)CC1,17.2
15,O=C1c2ccccc2NC2(CCCC2)N1N=C1CCCC1,3.95
16,O=C1C2C3C=CC(CC3)C2C(=O)N1c1ccc([N+](=O)[O-])cc1 (stereo not drawn),14.4
17,CCOC(=O)CSc1nc2ccc(C)cc2n2cnnc12,11.3
18,Cc1nn(C)c(C)c1S(=O)(=O)N1CCC(C(=O)NC2CCCCC2)CC1,13
19,Cc1cccc(C)c1NC(=O)c1ccc2c(c1)CCN2S(C)(=O)=O,9.28
20,Cc1ccc(C)c(OCCC(=O)OCC(=O)NCc2ccccc2)c1,18.1
21,COCCNC(=O)C(c1cccs1)N(CCc1ccccc1)C(=O)Cn1nnc2ccccc21 (stereo not drawn),9.47
22,CN1CCN(C(=O)C(N)Cc2ccccc2)CC1 (stereo not drawn),1.84
23,O=C(NCc1ccc(F)cc1)C1CCN(S(=O)(=O)N2CCCC2)CC1,9.34
24,O=C(COc1cc2oc(=O)c3c(c2cc1Cl)CCC3)NCCN1CCOCC1,12.4
